# Hit rate of the full screen: of about 390,000 compounds, about 17,000 (4.4%) were called active. The inconclusive results got no clear call from the source; some entries with a clear call stand among them for comparison. The call rests on the fitted dose curve; in most records, active means well fitted inhibition curve with a large enough effect; inconclusive means small, poorly fitted or top-dose-only effect; inactive means no such curve, though single readings can be large or run the other way. Where the call is inconclusive, the potency comes from a doubtful curve fit.
# Biological target: Lysine-specific demethylase 4A (Homo sapiens) (UniProt O75164)
# Chain of UniProt O75164 (O75164 whole entry, looked up, the tested form may be a part): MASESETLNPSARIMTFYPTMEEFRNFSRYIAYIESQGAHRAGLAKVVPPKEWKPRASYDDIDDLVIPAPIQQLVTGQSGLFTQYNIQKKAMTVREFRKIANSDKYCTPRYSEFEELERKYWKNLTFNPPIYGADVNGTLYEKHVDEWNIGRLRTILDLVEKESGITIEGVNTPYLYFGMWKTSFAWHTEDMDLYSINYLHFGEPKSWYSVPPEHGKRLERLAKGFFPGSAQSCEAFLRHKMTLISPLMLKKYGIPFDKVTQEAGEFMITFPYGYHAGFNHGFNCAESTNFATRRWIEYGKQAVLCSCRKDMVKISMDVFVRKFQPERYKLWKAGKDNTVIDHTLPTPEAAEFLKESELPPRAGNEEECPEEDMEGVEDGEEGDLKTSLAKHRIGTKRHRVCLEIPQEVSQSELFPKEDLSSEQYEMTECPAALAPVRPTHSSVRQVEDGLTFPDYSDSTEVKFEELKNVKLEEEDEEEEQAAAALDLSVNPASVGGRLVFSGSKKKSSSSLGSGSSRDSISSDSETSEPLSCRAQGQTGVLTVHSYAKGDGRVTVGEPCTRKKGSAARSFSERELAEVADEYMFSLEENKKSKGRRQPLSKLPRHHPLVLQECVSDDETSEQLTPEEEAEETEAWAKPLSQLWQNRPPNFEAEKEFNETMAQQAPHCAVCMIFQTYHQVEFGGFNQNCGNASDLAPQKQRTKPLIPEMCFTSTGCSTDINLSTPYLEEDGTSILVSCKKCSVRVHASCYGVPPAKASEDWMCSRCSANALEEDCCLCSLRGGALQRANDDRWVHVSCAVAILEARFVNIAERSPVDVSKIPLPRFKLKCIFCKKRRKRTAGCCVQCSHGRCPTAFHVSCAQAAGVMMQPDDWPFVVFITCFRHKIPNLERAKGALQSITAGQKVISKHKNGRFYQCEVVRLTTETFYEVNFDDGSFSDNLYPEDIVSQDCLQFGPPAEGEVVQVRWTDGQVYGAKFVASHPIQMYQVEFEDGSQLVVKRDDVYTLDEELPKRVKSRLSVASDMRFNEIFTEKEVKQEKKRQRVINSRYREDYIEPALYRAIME
# Assay: qHTS Assay for Inhibitors of JMJD2A-Tudor Domain; further: nearly all actives have a fitted effect of over 50% in size
# Conditions: AlphaScreen JMJD2A-Tudor / H3K4me3 peptide binding; series mostly up to 114 µM
# Potency means the concentration at half of the fitted maximal effect; tags describe the fitted curve by direction and shape.
row,Structure (SMILES),Potency
1,Cn1cccc1C(=O)N1CCc2ccccc2C1,"inconclusive: 56.2 µM [inhibitor, partial curve, poor fit]"
2,CCNC(=O)CSc1nnc(-c2cccc(S(=O)(=O)N(CC)CC)c2)n1CCc1ccccc1,"inconclusive: 11.2 µM [inhibitor, full curve, poor fit]"
3,C#CCOCCOCCOCCNc1nc(N2CCN(C(=O)CCCCCCCCCCNC(=O)Cn3cc(C[C@@H](C)O)nn3)CC2)nc(N2CCN(C(=O)CCCCCCCCCCNC(=O)[C@H](CCCCN)n3cc(C[C@@H](C)CC)nn3)CC2)n1,active: 79.4 µM
4,CC1Cc2ccccc2N1C(=O)NC1CC(=O)N(c2ccc3c(c2)OCCO3)C1 (stereo not given),inactive
5,O=C(N/N=C/c1ccoc1)c1cc(Br)ccc1O,"inconclusive: 25.1 µM [inhibitor, partial curve]"
6,Cn1c(O)c(N=NC(=O)c2cc(-c3cccs3)nc3ccccc23)c2ccccc21,"inconclusive: 11.2 µM [inhibitor, full curve, poor fit]"
7,CN1C/C(=C/c2cccs2)C(=O)/C(=C\c2cccs2)C1,"inconclusive: 50.1 µM [inhibitor, partial curve]"
8,Nc1c(N2CCN(c3ccccc3)CC2)c2ccccc2oc1=O,"inconclusive: 28.2 µM [inhibitor, partial curve]"
9,COc1ccc(C(C)=O)cc1CSc1nc2cc(C(=O)O)ccc2c(=O)n1Cc1ccccc1,inactive
10,COc1ccc(C(O)P(=O)(OCC(C)C)c2ccc(N(C)C)cc2)c(OC)c1 (stereo not given),inactive
11,CC(=O)c1cc(-c2ccccc2)n(CCC(=O)NC(C)c2ccccc2)c1C (stereo not given),inactive
12,CCN(CC)S(=O)(=O)c1cccc(NC(=O)CNC2CCCCCC2)c1,active: 50.1 µM
13,C[C@@H](Oc1ccccc1)c1nnn(Cc2ccccc2)c1-c1c([C@@H](C)Oc2ccccc2)nnn1Cc1ccccc1,inactive
14,Oc1ccccc1-c1nc2ccccc2nc1-c1ccccc1,"inconclusive: 56.2 µM [inhibitor, partial curve, poor fit]"
15,COc1ccc(OC)c(N2Cc3cc(C)c(C)cc3C2)c1,"inconclusive: 56.2 µM [inhibitor, partial curve]"
16,COc1ccc(CCN2C(=O)C3C4CC(C5C(C(N)=O)=NOC45)C3C2=O)cc1OC (stereo not given),"inconclusive: 56.2 µM [inhibitor, partial curve]"
17,COc1cc(/C=C/C(=O)O)ccc1OCc1ccccc1C#N,inactive
18,O=C1C(=O)c2ccccc2C([O-])=C1[n+]1ccccc1,inactive
19,Cc1ccc(NNS(=O)(=O)c2ccc(C)cc2)cc1,active: 3.16 µM
20,O=C(Nc1nc2c(s1)CN(Cc1ccccc1)CC2)c1c(F)cccc1F,active: 50.1 µM
21,COc1ccccc1NC(=O)CSc1nccn1Cc1ccccc1,inactive
22,COc1ccc(CNCc2ccncc2)c(OC)c1,inactive
23,O=[N+]([O-])c1cc([N+](=O)[O-])c(Oc2cccc(Cl)c2Cl)cc1NN1CCCCC1,"inconclusive: 11.2 µM [inhibitor, full curve]"

row,Structure (SMILES),Potency
1,Cc1cccc(NC(=O)c2ccc(N3CCOCC3)c([N+](=O)[O-])c2)n1,"inconclusive: 63.1 µM [inhibitor, partial curve, poor fit]"
2,COC(=O)c1c(NC(=S)NN2CCN(C)CC2)sc2c1CCC(C)C2 (stereo not given),"inconclusive: 56.2 µM [inhibitor, partial curve]"
3,Cn1c(SCc2c(F)cccc2Cl)nnc1-c1cnccn1,active: 79.4 µM
4,O=C(OC1CCOC1=O)c1ccccc1C(=O)c1ccc(Cl)c([N+](=O)[O-])c1 (stereo not given),inactive
5,O=[N+]([O-])c1ccc(C(=S)N2CCN(c3ccc(F)cc3)CC2)cc1,"inconclusive: 28.2 µM [inhibitor, full curve]"
6,COC(=O)c1nc(NC(=O)c2ccccc2)n[nH]1,inactive
7,Cc1ccc(NC(=O)CSc2nnc(-c3ccc(Br)cc3)o2)c(C)c1,inactive
8,CCC(CC)COC(=O)C1=C(C)NC(=O)NC1c1ccc(N(C)C)cc1 (stereo not given),"inconclusive: 15.8 µM [inhibitor, full curve]"
9,COc1ccc(-c2ccc([C@H]3[C@@H]4C=CCC[C@@]4(C)C(=O)N3Cc3ccccc3)c(F)c2)cc1OC,"inconclusive: 63.1 µM [inhibitor, partial curve]"
10,COc1cccc(C(=O)N2CCN(Cc3cc(Br)ccc3OC)CC2)c1,active: 7.94 µM
11,Oc1ccc(C2Nc3cccc4cccc(c34)N2)c(O)c1,active: 79.4 µM
12,O=C(CSc1nnc(Cc2ccccc2)n1Cc1ccco1)NC12CC3CC(CC(C3)C1)C2,"inconclusive: 50.1 µM [inhibitor, partial curve]"
13,C#CCOCCOCCOCCNc1nc(N2CCN(C(=O)CCCCCCCCCCNC(=O)[C@H](CCCCN)n3cc(C)nn3)CC2)nc(N2CCN(C(=O)CCCCCCCCCCNC(=O)[C@H](CCCCN)n3cc(CCCC(=O)O)nn3)CC2)n1,"inconclusive: 50.1 µM [inhibitor, partial curve]"
14,CC(C)/C=N/NC(=O)c1ccc(Cl)cc1,"inconclusive: 14.1 µM [inhibitor, full curve, poor fit]"
15,O=C(CSc1nnc(-c2ccco2)n1CC1CCCO1)c1ccc(F)cc1 (stereo not given),active: 3.16 µM
16,CC(C)c1ccc(Nc2nc(NCc3ccco3)nc(N3CCOCC3)n2)cc1,"inconclusive: 50.1 µM [inhibitor, partial curve]"
17,COc1cc(/C=N/NC(=O)CCn2cnc(-c3ccccc3)c2-c2ccccc2)ccc1O,active: 56.2 µM
18,CCc1ccc(NC(=O)Nc2nnc(N(C)C3CCCCC3)s2)cc1,inactive
19,O=C1CC(O)(c2ccccc2)C(c2ccccc2)=C1c1ccccc1 (stereo not given),"inconclusive: 50.1 µM [inhibitor, partial curve]"
20,CSCCC(NC(=O)/C(=C/c1ccco1)NC(=O)c1ccco1)C(=O)O (stereo not given),active: 39.8 µM
21,CCCOC(=O)Nc1nc2ccccc2o1,"inconclusive: 15.8 µM [inhibitor, full curve]"
22,Cc1ccc(CN2CCC(CNS(=O)(=O)c3ccc(-c4ccc(=O)[nH]n4)s3)CC2)cc1,"inconclusive: 20 µM [inhibitor, full curve, poor fit]"

# — PubChem BioAssay AID504339 (National Center for Advancing Translational Sciences (NCATS), 2011)
